Results from the supplement of paper PMC3334620.
The full ranking holds about 33,000 sequences; the median of “E-score (-0.5 to 0.5)” is about -0.013, and the highest 2% start at about 0.3. The list shows a part of the results.

molecular target: T1, Msn1 (UniProt P22148); assay: PBM E-score (8-mer binding enrichment) (E-score (-0.5 to 0.5)); higher = stronger / more preferred TF binding; most listed sequences are background and not binding sites; details: protein concentration: 200 nM; construct: GST-full length
T1 sequence: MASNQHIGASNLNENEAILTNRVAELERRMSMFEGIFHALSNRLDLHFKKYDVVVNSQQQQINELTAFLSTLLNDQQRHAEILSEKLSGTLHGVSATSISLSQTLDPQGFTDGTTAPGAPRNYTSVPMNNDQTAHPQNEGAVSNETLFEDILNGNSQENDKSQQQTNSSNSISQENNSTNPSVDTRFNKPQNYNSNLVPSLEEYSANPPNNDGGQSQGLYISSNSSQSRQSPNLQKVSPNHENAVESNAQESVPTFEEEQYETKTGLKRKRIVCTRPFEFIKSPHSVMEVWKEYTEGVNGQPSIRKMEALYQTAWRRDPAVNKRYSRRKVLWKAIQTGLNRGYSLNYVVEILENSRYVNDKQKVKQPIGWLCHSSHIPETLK
Procedure, shortened: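 E-scores (a modified Wilcoxon-Mann-Whitney statistic) were assigned by the Universal PBM Analysis Suite to every ungapped eight-base word pooled with its reverse complement. The input came from universal all-10-mer Agilent arrays made double-stranded by primer extension and probed with GST-tagged yeast transcription factors at about 100-200 nM. Fluorescent anti-GST detected bound protein, and masliner normalised the scans.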

Sequence | PBM E-score
AAATACAG | -0.0238
TCTAGAAA | 0.0682
TAATACGA | 0.0364
CAATCCCC | -0.123
AGACCTAA | -0.0999
CTCTATAC | -0.124
AGCGCTAA | -0.0425
ACCGTTTA | -0.0287
AAGTTAAG | -0.202
ATTAGTGG | 0.0971
AGTTCAAC | 0.0955
CTCCAACA | -0.112
CATACGAC | 0.08
ATACTCAA | 0.0614
CATTAGGC | -0.0348
CATGCCGA | 0.147
AGTCTACA | -0.165
CAACTGTG | 0.172
AGGGGGCG | -0.416
CAACGCAC | -0.121
ATAATAGC | 0.0442
CTAGTCTC | 0.00797
TACACGTA | 0.104
CCCTACAC | -0.00857
CGTCATCA | 0.0413

Sequence | PBM E-score
AATGAGGT | -0.0411
CTGTGAGC | -0.129
ATCTCGAA | 0.137
ATTTCTGG | 0.193
GGAGGATA | -0.142
AATAGTCA | 0.0144
AGCAGGCC | -0.0677
CTACGCTA | -0.138
AACGTCTC | 0.0533
TGAGGGAA | -0.237
ATTTAAGG | 0.0511
AATCATGG | 0.0997
ATCCTATG | -0.0491
AACGAGCA | 0.00686
ATCTCCGG | 0.199
ATTAATAA | 0.238
GCTCCAAA | -0.0447
ATTGTGGC | 0.104
AAACGACC | 0.081
AAACCTCA | 0.0769
ACACAGGA | 0.187
GCATGAGC | -0.104
CGTCCAGC | -0.0215
CCGTAGTC | -0.159
GAGGACGC | -0.00551

Sequence | PBM E-score
GAATGAGC | -0.02
GAGCTGGC | -0.148
TGTCGCAA | 0.324
AACCCTAG | -0.11
CACGGACC | 0.0127
GTCCGATA | 0.162
AAAACAGC | 0.0586
AGTATCCG | 0.104
ATATCCGA | 0.202
ACGGAGTC | -0.124
CCCCGGTA | -0.208
CACCCCCC | -0.402
AGGTACTA | 0.0722
CAAACTTC | 0.159
CCCTGGGC | -0.306
TCGAGACA | 0.273
CCGGGGCC | -0.338
CCCCCCCC | -0.346
CTGCTACA | -0.054
CGCGGAGA | 0.109
AAATGACA | 0.278
ATTCCTGA | -0.00903
TCGACTAA | 0.159
CCGTGTCA | 0.121
CAAGGAGC | -0.292

Sequence | PBM E-score
CCCACAAG | 0.00789
AAGGATCG | 0.0188
ACCTATCC | 0.134
CATGACTA | -0.16
AATTAATG | 0.189
AAATTTTC | 0.0153
CCTGTTCA | -0.145
CACTTAGC | -0.141
ACTTGTGG | -0.0361
AATCAATC | 0.13
CTCCGTTA | -0.156
GATGTTAA | 0.0332
ACAGATAA | 0.0286
AGCGTACC | -0.278
CCCGAATC | -0.0424
GTATGCGA | 0.00171
TCGCCTCA | 0.0235
CCTTACTA | 0.0743
ACACTGTA | -0.105
TCCCAGAA | -0.0771
TCTCTCCA | -0.196
ATTATTTA | 0.243
ATATTCGA | 0.0229
ACGTGTAA | -0.0563
AAGCGCAG | 0.0113

Sequence | PBM E-score
ATCCTCCC | -0.283
CATTACCA | 0.00384
AGGCGGGG | -0.156
CAAGGACC | 0.0568
CCGTGCAC | -9e-05
AAATGCCA | 0.0293
GGCGCGAC | 0.175
AGAAAGTA | 0.161
GTGCTCAA | -0.054
CATCGAGG | -0.0959
AGTGCCCC | -0.293
CCTCCCCC | -0.404
TAGGGTAA | 0.155
CGCCATTC | 0.0731
ATCATGAT | 0.179
ACGTGAAA | 0.119
ACCCACTA | 0.00464
ACGTCAAG | -0.117
AAGGCACA | -0.0168
GGTCATAA | 0.0762
CATGGTAC | 0.0378
GGATGGGA | -0.136
AGGTCCTA | -0.016
GCTTGGTA | 0.129
CTGATCAC | -0.188

Sequence | PBM E-score
AAGAACGA | 0.165
CACTTCTA | -0.0825
TCGGTACA | 0.281
CGCACTTA | -0.0705
ACGTCAGG | -0.149
CATCGGGG | -0.091
AAAGGCTG | -0.149
AAAAGCCA | 0.039
CCCGTGAG | -0.0409
CCCGCAGG | -0.165
TAGTACAA | 0.321
GCTTTGAA | -0.0376
TGATCCCA | -0.0531
ATGTAGTC | 0.0193
CACTACAG | -0.0138
GGTAACCA | -0.152
CGGAGTAC | -0.0117
CCATTCAG | 0.00142
CAGATGCC | -0.152
GACGGGGA | -0.195
CGCGGGCC | -0.105
ACGTGAAC | -0.0481
ATTGTGGA | 0.098
CGTGGAAC | -0.0518
ACTTGCAT | -0.0264

Sequence | PBM E-score
GCTACGTA | -0.0664
ATTGCAGC | -0.0794
ACAGCGGG | -0.115
ACCTAAAC | -0.0436
CCCATACA | -0.0596
ATGCCTGG | -0.0522
AGAAACCA | 0.0249
GGGGAAAA | 0.00854
ATCCTAGC | -0.118
CGGCTGCA | -0.055
GTTCTACA | -0.231
CATAGGAC | 0.234
CAGAACGA | 0.11
AGATCGCC | -0.123
CTTTATTC | 0.105
CCCTGGCC | -0.388
GCCACCGC | -0.116
ATCGGTTA | 0.0545
GAAGAAAA | 0.105
ACCCGTGC | -0.169
CATAGTCA | 0.0365
CAAGATTG | 0.131
